The campaign covered roughly 370,000 compounds. About 150 (0.041%) were called active. The inconclusive results got no clear call from the source; some entries with a clear call stand among them for comparison. Calls come from the whole dose curve; as a rule, active = well fitted inhibition curve with a large enough effect; inconclusive = small, poorly fitted or top-dose-only effect; inactive = flat fitted curve, though single readings scatter. Potencies of inconclusive entries are left out as doubtful fits.
Each molecule was assayed against Beta-lactamase (Escherichia coli (strain K12)) (UniProt P00811) (assay: qHTS Inhibitors of AmpC Beta-Lactamase (assay with detergent)). Conditions: AmpC hydrolysis of nitrocefin, absorbance 480 nm, 0.01% Triton; activity change, negative = inhibition: at 114 µM (top of the series).
Sequence of UniProt P00811 (P00811 whole entry, looked up): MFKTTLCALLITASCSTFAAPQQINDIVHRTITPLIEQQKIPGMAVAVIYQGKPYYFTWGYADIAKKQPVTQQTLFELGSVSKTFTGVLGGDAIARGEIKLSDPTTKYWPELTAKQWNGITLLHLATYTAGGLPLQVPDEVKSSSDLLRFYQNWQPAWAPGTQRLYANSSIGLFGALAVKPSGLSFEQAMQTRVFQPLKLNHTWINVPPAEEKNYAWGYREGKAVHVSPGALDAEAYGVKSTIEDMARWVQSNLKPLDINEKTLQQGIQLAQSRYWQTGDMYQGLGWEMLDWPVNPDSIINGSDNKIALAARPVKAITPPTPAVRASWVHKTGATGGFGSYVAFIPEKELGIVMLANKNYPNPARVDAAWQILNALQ
How it was run: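 AmpC (5.3 nM in the dispensed reagent) in 20 mM phosphate pH 7.0 with 0.01% (detergent screen) or 0.0001% Triton X-100 was preincubated with compounds for 15 min at room temperature. Nitrocefin was then added from an 800 uM solution, and hydrolysis was followed at 480 nm.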
Note: nearly all actives have a fitted effect of over 25% in size.
Potency is the fitted concentration of half-maximal effect; tags give direction and shape of the fitted curve.
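Throughout, for activity change, negative = inhibition: 0% = no-compound wells and -100% = no-enzyme wells.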

| SMILES | activity change, negative = inhibition | Potency |
| --- | --- | --- |
| COc1ccc2c(c1OC)C(=O)OC2Nc1nc(-c2ccc(-c3ccccc3)cc2)cs1 (stereo not drawn) | inactive: -5.18% |  |
| CCCOc1ccc(-c2nn(-c3ccccc3)cc2C2NC(=O)NC(C)=C2C(=O)OC)cc1C (stereo not drawn) |  | inconclusive [inhibitor, single point] |
| Cc1occc1C(=O)NNC(=O)c1ccccc1C(=O)O | inactive: -1.31% |  |
| O=C(Nc1ccc(Br)cn1)c1cccc(C(=O)Nc2ccc(Br)cn2)c1 |  | inconclusive [inhibitor, partial curve, poor fit] |
| COc1ccc(CNC(=O)c2ccccc2NC(=O)C2=CSCCO2)c(OC)c1 |  | inconclusive [inhibitor, partial curve, poor fit] |
| COc1ccc(C(=O)Oc2cc(C)[nH]c(=O)c2[N+](=O)[O-])cc1 |  | inconclusive [inhibitor, full curve, poor fit] |
| O=S(=O)(c1ccccc1)c1ccc(C(F)(F)F)cn1 | inactive: 4.25% |  |
| CC(C)COCC(O)CCC(=O)NNC(=S)Nc1ccccc1 (stereo not drawn) |  | inconclusive [inhibitor, full curve, poor fit] |
| CCc1nnc(NS(=O)(=O)c2ccc(N/C=C\C(=O)c3ccc4ccccc4c3)cc2)s1 | inactive: -21.2% |  |
| CC(C)Cn1ccc(=O)n(CC(C)C)c1=O |  | inconclusive [inhibitor, partial curve, poor fit] |
| CC(C)C[C@@H](CO)N1CCN(Cc2ccc([N+](=O)[O-])cc2)CCC1=O |  | inconclusive [inhibitor, partial curve, poor fit] |
| OCc1c(OCc2cccc(F)c2)ccc2ccccc12 |  | inconclusive [inhibitor, full curve, poor fit] |
| Cn1nc(CC(=O)NC2CCCCC2)c2ccccc2c1=O |  | inconclusive [inhibitor, full curve, poor fit] |
| C/C(=N\NC(=O)c1ccc(CSc2nncn2C)cc1)c1cccs1 | inactive: -7.66% |  |
| OCCN(/C=N/c1nc(-c2ccc(Br)cc2)cs1)CCO | inactive: 2.74% |  |
| CC1CN(S(=O)(=O)c2cccc(C(=O)NCc3ccc4c(c3)OCO4)c2)CC(C)O1 (stereo not drawn) |  | inconclusive [inhibitor, partial curve, poor fit] |
| CC(C)(Oc1ccc(C2CC2(Cl)Cl)cc1)C(=O)O (stereo not drawn) |  | inconclusive [inhibitor, full curve] |
| Cc1ccc(-n2nccc2-c2nn(-c3cccc(C(F)(F)F)c3)c(=O)n(C)c2=O)cc1 |  | inconclusive [inhibitor, single point] |
| O=C(Nc1ccc(NC(=O)c2ccccc2Br)cc1)c1ccccc1 |  | inconclusive [inhibitor, partial curve, poor fit] |
| Cc1nc(SCC(=O)Nc2cc(Cl)ccc2[N+](=O)[O-])nc(C)c1C |  | inconclusive [inhibitor, full curve, poor fit] |
| Cc1nnc2sc(SCC(=O)Nc3nccs3)nn2c1=O |  | inconclusive [inhibitor, full curve, poor fit] |
| COc1ccc(OC)c2[nH]c(=O)c(CCNC(=O)C(C)(C)C)cc12 |  | inconclusive [inhibitor, full curve, poor fit] |
| NNC(=O)c1cccc(COc2ccc3c(c2)CCC3)c1 | inactive: 2.61% |  |

| SMILES | activity change, negative = inhibition | Potency |
| --- | --- | --- |
| CCCCC[C@H](O)/C=C/[C@@H]1[C@@H](CCCCCCC(=O)O)[C@@H](O)C[C@H]1O |  | inconclusive [inhibitor, full curve] |
| O=C(CCC(=O)OCc1ccc(C(=O)Oc2ccccc2)cc1)Nc1cccc2ccccc12 |  | inconclusive [inhibitor, full curve, poor fit] |
| COc1cc(NC(=O)Cn2ncc3c([nH]c4ccc(C)cc43)c2=O)cc(OC)c1OC | inactive: -6.2% |  |
| CCOC(=O)C1CCN(Cc2ccc(F)cc2F)CC1 |  | inconclusive [inhibitor, single point] |
| O=C(CNC1CCCCCC1)Nc1ccc(S(=O)(=O)NC2CC2)cc1 | inactive: -0.117% |  |
| Oc1ccc(CN2CCCc3ccccc32)c2cccnc12 |  | inconclusive [inhibitor, full curve] |
| CCc1ccc(-c2csc3ncn(CC(=O)NCc4ccco4)c(=O)c23)cc1 | inactive: -0.0591% |  |
| CCOc1ccc(-n2c(Cc3cc(=O)[nH]c(=O)[nH]3)nnc2SC(C)C)cc1 |  | inconclusive [inhibitor, single point] |
| COc1cc2c(cc1NC(=O)CN(C)Cc1cccc(OC)c1OC)oc1ccccc12 |  | inconclusive [inhibitor, full curve, poor fit] |
| CCN(CC)c1ccc(NC(=O)COc2ccccc2C#N)cc1S(=O)(=O)Nc1ccc(OC)cc1 |  | inconclusive [inhibitor, full curve] |
| COC(=O)C1=C(C)N(CC2CC2)C(=NCc2cccc(C(F)(F)F)c2)N[C@H]1c1ccccc1 |  | inconclusive [inhibitor, partial curve] |
| O=C(NCc1ccco1)NCC(F)(F)F |  | inconclusive [inhibitor, full curve] |
| O=C(CCC(=O)OCC(=O)c1ccc(Cl)cc1Cl)Nc1cccc2cccnc12 |  | inconclusive [inhibitor, full curve] |
| CC(=O)c1c(C)[nH]c(C(=O)OCc2c(F)cccc2Cl)c1C | inactive: 6.41% |  |
| CN(C)/C=C1\Oc2ccc3ccccc3c2C1=O |  | inconclusive [inhibitor, full curve, poor fit] |
| O=C(NCc1cccnc1)c1cccn1-c1ncc(C(F)(F)F)cc1Cl |  | inconclusive [inhibitor, full curve, poor fit] |
| CCOCCCN(C(=O)c1ccco1)C(C(=O)NC1CCCC1)c1ccc(OC)cc1 (stereo not drawn) | inactive: -10.3% |  |
| CCOc1ccc(S(=O)(=O)N2CCN(c3c(C)cccc3C)CC2)c2ccccc12 | inactive: 1.48% |  |
| COc1ccccc1C(CNC(=O)c1cc(S(=O)(=O)N2CCOCC2)ccc1C)N1CCCC1 (stereo not drawn) |  | inconclusive [inhibitor, full curve, poor fit] |
| Cc1[nH]c(=O)[nH]c(=O)c1NS(=O)(=O)c1ccccc1 |  | inconclusive [inhibitor, single point] |
| CCc1nc2c(cnn2-c2ccc(F)cc2)c(=O)n1-c1ccc(N2CCC(C)CC2)cc1 | inactive: -10.5% |  |
| COc1ccc(C2(CNC(=O)C(c3ccccc3)c3ccccc3)CCOCC2)cc1OC |  | inconclusive [inhibitor, partial curve] |
| CCOc1ccc(NC(=O)c2ccc(-c3nc(COc4ccccc4)c(C)o3)cc2)cc1 |  | inconclusive [inhibitor, single point] |

| SMILES | activity change, negative = inhibition | Potency |
| --- | --- | --- |
| COC(=O)c1cccc(NC(=O)CSc2nc3cccnc3n2C)c1 |  | inconclusive [inhibitor, partial curve, poor fit] |
| CC(C)(C)c1cccc(OCCCSc2ncccn2)c1 |  | inconclusive [inhibitor, single point] |
| Cc1cc(C)nc(N2CCCC(C(=O)Nc3nnc(C(C)C)s3)C2)n1 (stereo not drawn) |  | inconclusive [inhibitor, partial curve, poor fit] |
| COC(=O)CNC(=O)C1(C)C=CCN1C(=O)c1ccccc1 (stereo not drawn) |  | inconclusive [inhibitor, full curve, poor fit] |
| COc1cccc(OCCNC(=O)c2ccccc2Sc2ccccc2C#N)c1 |  | inconclusive [inhibitor, full curve] |
| CC1=CN2C(=N)/C(=C/c3ccc([N+](=O)[O-])o3)C(=O)N=C2S1 | inactive: 0.237% |  |
| Cc1cc(C)c2c(C(C)(C)C)nn(-c3ccccc3)c2n1 | inactive: -16% |  |
| O=[N+]([O-])c1cnc2ccccc2c1 |  | inconclusive [inhibitor, full curve, poor fit] |
| Cc1ccc(-c2noc(CN3C(C)CCCC3C)n2)cc1 (stereo not drawn) |  | inconclusive [inhibitor, full curve, poor fit] |
| COc1ccc(CN2CCN(C(=O)Cc3ccccc3)CC2)cc1Br |  | inconclusive [inhibitor, full curve, poor fit] |
| CN(Cc1ccco1)C(=O)C1CCC(=O)N1Cc1ccc(F)cc1 (stereo not drawn) | inactive: -5.74% |  |
| Cc1cccc(NC(=O)/C=C/c2ccc3c(c2)OCO3)n1 |  | inconclusive [inhibitor, full curve] |
| CN(C)S(=O)(=O)c1ccc(Cl)c(C(=O)NNC(=O)Cn2ccc(C(F)(F)F)n2)c1 |  | inconclusive [inhibitor, partial curve] |
| O=C(NCCc1csc(-c2cccc(F)c2)n1)c1cccs1 | inactive: 19.1% |  |
| CC(NC(=O)C1CCN(C(=O)c2ccc(F)cc2)CC1)c1ccc(-n2ccnc2)cc1 (stereo not drawn) | inactive: -4.43% |  |
| OCCNc1nc(Nc2ccc(O)cc2)nc2ccccc12 |  | inconclusive [inhibitor, partial curve] |
| CCC(C)(NC(=O)c1ccccc1)C(=O)O (stereo not drawn) |  | inconclusive [inhibitor, full curve] |
| NC(=O)c1ccc(SCC(=O)OCC(=O)NC2CCCCCCC2)c([N+](=O)[O-])c1 |  | inconclusive [inhibitor, single point] |
| Cc1cc(O)c(CN(C)C)c2c1C(=O)/C(=C/c1ccco1)O2 | inactive: -0.162% |  |
| COc1ccc(/C=C/C(=O)NC(C)CCc2ccccc2)cc1 (stereo not drawn) | inactive: 2.99% |  |
| COc1ccc(OC)c(-c2nnc(NC(=O)C(C)Sc3nncn3C)s2)c1 (stereo not drawn) |  | inconclusive [inhibitor, full curve, poor fit] |
| CSCC[C@H](N)C(=O)N1CCC(C(=O)N[C@H](C(=O)NCc2ccccc2F)C(C)C)CC1 |  | inconclusive [inhibitor, full curve, poor fit] |

Reference: PubChem BioAssay AID485294 (National Center for Advancing Translational Sciences (NCATS), 2010)
